Laboratory results: PMC4336329 (PLoS ONE, 2015)
About 14,000 (4.5%) of roughly 310,000 compounds showed an effect of 50% or more. The effect is printed as a negative number. The list shows a part of the results.

Molecular target: human ether-à-go-go-related gene (hERG) potassium channel (human, UniProt Q12809)
Test: primary screen, population patch clamp on CHO cells stably expressing hERG
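Further: peak tail current of the secondary pulse compared with the same well before compound.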

Chain of human ether-à-go-go-related gene (hERG) potassium channel (Q12809 whole entry, looked up): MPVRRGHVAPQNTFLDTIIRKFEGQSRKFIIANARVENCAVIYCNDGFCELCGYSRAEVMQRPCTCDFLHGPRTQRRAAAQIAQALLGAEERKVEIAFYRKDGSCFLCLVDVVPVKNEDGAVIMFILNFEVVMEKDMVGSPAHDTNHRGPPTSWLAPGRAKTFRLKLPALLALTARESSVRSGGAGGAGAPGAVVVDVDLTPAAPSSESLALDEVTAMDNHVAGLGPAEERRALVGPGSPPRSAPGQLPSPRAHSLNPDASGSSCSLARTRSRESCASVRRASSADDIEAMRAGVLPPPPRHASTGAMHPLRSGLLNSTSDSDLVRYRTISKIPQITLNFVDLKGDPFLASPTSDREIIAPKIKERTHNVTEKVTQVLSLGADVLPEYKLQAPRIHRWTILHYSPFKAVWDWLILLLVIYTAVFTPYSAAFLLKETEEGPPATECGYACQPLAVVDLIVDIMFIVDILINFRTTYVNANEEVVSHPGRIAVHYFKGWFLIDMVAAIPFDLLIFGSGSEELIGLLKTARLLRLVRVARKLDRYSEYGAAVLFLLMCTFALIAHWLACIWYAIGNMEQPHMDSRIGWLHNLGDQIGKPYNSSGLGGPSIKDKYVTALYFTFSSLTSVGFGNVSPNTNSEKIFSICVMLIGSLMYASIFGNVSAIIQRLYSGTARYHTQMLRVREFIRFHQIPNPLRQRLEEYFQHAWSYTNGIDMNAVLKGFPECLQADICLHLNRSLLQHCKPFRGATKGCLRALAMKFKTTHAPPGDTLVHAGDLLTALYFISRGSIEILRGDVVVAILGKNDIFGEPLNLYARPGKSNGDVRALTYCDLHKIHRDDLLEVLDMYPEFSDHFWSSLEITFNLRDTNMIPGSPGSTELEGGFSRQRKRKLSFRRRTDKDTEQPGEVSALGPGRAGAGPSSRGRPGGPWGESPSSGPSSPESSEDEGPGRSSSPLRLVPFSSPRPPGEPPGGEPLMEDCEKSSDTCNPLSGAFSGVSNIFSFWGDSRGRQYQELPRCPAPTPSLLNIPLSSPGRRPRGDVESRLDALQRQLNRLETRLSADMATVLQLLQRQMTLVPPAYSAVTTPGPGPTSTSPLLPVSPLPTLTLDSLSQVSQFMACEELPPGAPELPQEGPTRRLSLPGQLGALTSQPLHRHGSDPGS

Structure (SMILES) | hERG current change (%, negative = inhibition) at 10uM [%]
COc1ccc(-c2cc(CNC(=O)CCl)on2)cc1 | 5.06
CCCCNS(=O)(=O)c1ccc2nc(SCC(=O)Nc3sccc3C#N)[nH]c2c1 | -13.3
O=C(COc1ccc(Cl)cc1Cl)N/N=C/c1ccc[nH]1 | -37.2
N#CC[n+]1cc(-c2ccc(Cl)cc2)n2c1CCC2.[Cl-] | 5.21
Cc1ccc(Cl)cc1NC(=O)CCN1C(=O)C2C3CCC(C3)C2C1=O (centres unmarked) | 4.42
COCCSc1ccccc1C(=O)Nc1cc(C)ccn1 | 6
Cc1ccc(C(=O)NCCc2csc(C)n2)cc1 | -2.69
CCOc1ccc(N=Nc2cc(C(C)C)ccc2O)cc1 | 14.7
C/C(CCC12CC3CC(CC(C3)C1)C2)=N\NC(N)=S | 14.4
O=C1N=C(N2CCOCC2)S/C1=C/c1ccc(-c2ccccc2Cl)o1 | 3.9
O=C(NC(=S)NC1CCSC1=O)c1ccccc1Cl (centres unmarked) | 12.5
COc1ccccc1N1CCN(Cc2nc(N)nc(Nc3ccccc3)n2)CC1 | -69.6
COc1ccc(Cl)cc1S(=O)(=O)N1CCN(C)CC1 | 12.5
CC(C)(C)c1ccc(S(=O)(=O)N(CCCN2CCOCC2)Cc2cccs2)cc1.O=C(O)C(=O)O | -33.4
Cc1c(C#N)c2ncn(CC#N)c(=O)c2n1-c1ccccc1 | -7.34
O=C(c1ccc(Cl)c(S(=O)(=O)N2CCCC2)c1)N1CCCC(C(F)(F)F)C1 (centres unmarked) | -18.1
CC(C)C(NC(=O)c1ccccc1Br)c1ccccc1 (centres unmarked) | 11.2
Cc1ccc([N+](=O)[O-])cc1S(=O)(=O)NCCc1cn2ccccc2n1 | -2.95
CCN(CC)CCn1c(NS(=O)(=O)c2ccc(C)cc2)nc2ccccc21 | -51
Cc1ccccc1C(=O)NCCN1CCOCC1.Cl | 6.78
CCN(CC)c1ccc(/C=N/NC(=O)c2c[nH]c3ccccc23)cc1 | -29.6
COc1ccc(C(=O)c2nc3ccccc3n2C(C)C)cc1 | -0.93

Structure (SMILES) | hERG current change (%, negative = inhibition) at 10uM [%]
CC(C)OC(=O)c1ccc(NC(=O)Cn2c(-c3nonc3N)nc3ccccc32)cc1 | 18.4
COc1cccc(C(=O)NCc2ccco2)c1OC | 11.5
Cl.Cn1cccc1CNCc1ccc(F)cc1 | 1.8
S=c1[nH]nc(-c2ccc(Cl)cc2Cl)n1Cc1ccccc1 | 1.82
Cc1ccnc(NC(=O)c2cccc([N+](=O)[O-])c2C)c1 | 18.9
C/C(=N\NC(=O)C1(C)CC1(Br)Br)c1ccc(C)cc1C (centres unmarked) | -5.2
COC(=O)C1C(c2ccc(OC)cc2)C(C(=O)OC)S(=O)(=O)C(CCN2CCCCC2)S1(=O)=O (centres unmarked) | 11.6
Cc1ccccc1CN1C(=O)[C@@H]2Cc3c([nH]c4ccccc34)C(C)(C)N2C1=O | 19
COC(=O)Cc1cn(-c2ncc(C(F)(F)F)cc2Cl)c2ccccc12 | 4.06
Cc1ccc(CNC(=O)C(NS(=O)(=O)c2cccc3nsnc23)c2ccccc2)cc1 (centres unmarked) | -16.1
COc1ccc(CN(C)CC(=O)N2CCc3ccccc3C2)cc1 | -42.1
Cc1cccc(C(C)C)c1NC(=O)COC(=O)CN1C(=O)C2CC=CCC2C1=O (centres unmarked) | 13.5
C#CCSc1ncc(-c2ccccc2)cn1 | 4.29
O=C(CSc1nnc(-c2ccncc2)o1)Nc1ccc(F)c(F)c1 | -8.77
Nc1cc(C(=O)OCC(=O)NC(c2ccccc2)c2ccccc2)ccc1Cl | 14.6
CCOc1ccc(NC(=O)CC2C(=O)N(c3ccccc3)C(=O)N2CCOC)cc1 (centres unmarked) | -4.26
O=c1c2c(c(-c3ccccc3)nn1Cc1ccccc1)CCCC2 | -16.2
CCCCCCCCCCOC(=O)Cn1c(COc2ccccc2)[n+](C)c2ccccc21.[Cl-] | -76.1
Cc1c(Cl)cccc1N1C(=O)CC(NNC(=O)c2cccnc2)C1=O (centres unmarked) | 11.1
Cc1ccc(S(=O)(=O)N2CCC(C(=O)N[C@@H](C)C(=O)NCCc3ccccc3)CC2)cc1 | -9.7
CCCCn1c(=O)c(CCC(=O)O)nc2ccccc21 | 13.7
OCC1(CCc2ccccc2)CCN(C/C=C/c2ccccc2)CC1 | -80.9
